# According to article PMC12820563, “FoxP3 forms a head-to-head dimer in vivo and stabilizes its multimerization on adjacent microsatellites”:
# The list shows a part of the results.
# Biological target: T1, MBP-FoxP1dN (Mus musculus, UniProt P58462 326-579)
# T1 sequence: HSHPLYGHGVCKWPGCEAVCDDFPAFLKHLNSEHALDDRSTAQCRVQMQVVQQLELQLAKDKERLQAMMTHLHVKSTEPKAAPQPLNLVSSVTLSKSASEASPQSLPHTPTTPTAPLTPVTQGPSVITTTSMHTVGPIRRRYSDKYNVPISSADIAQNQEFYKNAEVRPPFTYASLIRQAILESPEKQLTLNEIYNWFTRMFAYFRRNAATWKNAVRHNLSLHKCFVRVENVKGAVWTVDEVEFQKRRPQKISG
# Assay: PD-seq (MBP pull-down with sequencing); 20 mM Tris-HCl pH 7.5, 100 mM NaCl, 1.5 mM MgCl2, 0.4 uM protein, 0.1 uM dsDNA library, 30 min, room temperature, amylose pull-down; high values mean tight binding
# Conditions: protein: recombinant; tags: His6-MBP; chain copies: 2; dsDNA, one strand shown
# In short: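 A degenerate double-stranded DNA library, filled in with Klenow, was added at 0.1 µM to 0.4 µM His6-MBP-tagged mouse FoxP3 or FoxP1 fragment lacking the N-terminus, expressed in E. coli. Incubation lasted 30 min at room temperature in Tris pH 7.5 buffer with NaCl and MgCl2, after which complexes were collected on amylose resin, washed three times, digested with proteinase K to free the DNA, barcoded by PCR and sequenced by Illumina. Binding is the pooled-replicate reads-per-million enrichment of pull-down over input.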
row,Sequence,binding signal
1,GATGATTGTTCTCCCAGCTGATGAATTTATGCTTTCGAGTAAACAAATTTTCCTAATCTTTCTGTTCAAGCGCCATCTAC,1.55 RPM ratio (pull-down/input)
2,GATGATTGTTCTCCCAGCTGATGAATTCAACGTATCGAGTAAACAAATTTTCCTAATCTTTCTGTTCAAGCGCCATCTAC,1.01 RPM ratio (pull-down/input)
3,GATGATTGTTCTCCCAGCTGATGAATTCTAACGTTCGAGTAAACAAATTTTCCTAATCTTTCTGTTCAAGCGCCATCTAC,0.876 RPM ratio (pull-down/input)
4,GATGATTGTTCTCCCAGCTGATGAATTCGCAGGATCGAGTAAACAAATTTTCCTAATCTTTCTGTTCAAGCGCCATCTAC,0.876 RPM ratio (pull-down/input)
5,GATGATTGTTCTCCCAGCTGATGAATTTTACTACTCGAGTAAACAAATTTTCCTAATCTTTCTGTTCAAGCGCCATCTAC,0.886 RPM ratio (pull-down/input)
6,GATGATTGTTCTCCCAGCTGATGAATTAGTAGTTTCGAGTAAACAAATTTTCCTAATCTTTCTGTTCAAGCGCCATCTAC,1.03 RPM ratio (pull-down/input)
7,GATGATTGTTCTCCCAGCTGATGAATTCAGCGTGTCGAGTAAACAAATTTTCCTAATCTTTCTGTTCAAGCGCCATCTAC,0.872 RPM ratio (pull-down/input)
8,GATGATTGTTCTCCCAGCTGATGAATTTTGTTCATCGAGTAAACAAATTTTCCTAATCTTTCTGTTCAAGCGCCATCTAC,1.1 RPM ratio (pull-down/input)
9,GATGATTGTTCTCCCAGCTGATGAATTTAAGGAGTCGAGTAAACAAATTTTCCTAATCTTTCTGTTCAAGCGCCATCTAC,0.82 RPM ratio (pull-down/input)
10,GATGATTGTTCTCCCAGCTGATGAATTCTATCGATCGAGTAAACAAATTTTCCTAATCTTTCTGTTCAAGCGCCATCTAC,0.92 RPM ratio (pull-down/input)
11,GATGATTGTTCTCCCAGCTGATGAATTCGAAACTTCGAGTAAACAAATTTTCCTAATCTTTCTGTTCAAGCGCCATCTAC,0.816 RPM ratio (pull-down/input)
12,GATGATTGTTCTCCCAGCTGATGAATTCCTATGATCGAGTAAACAAATTTTCCTAATCTTTCTGTTCAAGCGCCATCTAC,0.81 RPM ratio (pull-down/input)
13,GATGATTGTTCTCCCAGCTGATGAATTGCCCAAGTCGAGTAAACAAATTTTCCTAATCTTTCTGTTCAAGCGCCATCTAC,0.886 RPM ratio (pull-down/input)
14,GATGATTGTTCTCCCAGCTGATGAATTCCCGTTGTCGAGTAAACAAATTTTCCTAATCTTTCTGTTCAAGCGCCATCTAC,0.907 RPM ratio (pull-down/input)
15,GATGATTGTTCTCCCAGCTGATGAATTTCCACGATCGAGTAAACAAATTTTCCTAATCTTTCTGTTCAAGCGCCATCTAC,0.845 RPM ratio (pull-down/input)
16,GATGATTGTTCTCCCAGCTGATGAATTAACTGACTCGAGTAAACAAATTTTCCTAATCTTTCTGTTCAAGCGCCATCTAC,0.81 RPM ratio (pull-down/input)
17,GATGATTGTTCTCCCAGCTGATGAATTACAGTTATCGAGTAAACAAATTTTCCTAATCTTTCTGTTCAAGCGCCATCTAC,1.31 RPM ratio (pull-down/input)
18,GATGATTGTTCTCCCAGCTGATGAATTGTCTGGTTCGAGTAAACAAATTTTCCTAATCTTTCTGTTCAAGCGCCATCTAC,0.946 RPM ratio (pull-down/input)
